In the RNAGym collection of RNA variant scans (doi:10.1101/gad.245936.114):
Variants at the floor of the assay are shown more often than the library holds them.

B1: tRNA (parent)
chain: CUCUCGGUAGCCAAGUUGGUUUAAGGCGCAAGACUUUAAUUUAUCACUACGAAAUCUUGAGAUCGGGCGUUCGACUCGCCCCCGGGAGAUUUUUUCCUCGAGCAA

Variants of: B1
Experiment: nonsense suppression (GFP-seq) (ratio to wild type); higher = more function; SUP4oc tRNA, yeast GFP reporter sort-seq
In short: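 Yeast were grown in raffinose/galactose medium with 80 mg/L adenine, each strain bearing a genome-integrated ochre-suppressor tRNA variant from a ~3% random-mutation library, a galactose-driven GFP ochre reporter, and RFP. After sorting into GFP/RFP bins, every bin was sequenced on an Illumina platform at phred ≥30. The GFPSEQ value, a measure of nonsense suppression, is the weighted bin median GFP/RFP relative to the unmutated parent tRNA, using each variant's estimated cell share per bin as the weight. Only variants with ≥100 reads and ≥30 cells were included.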

Variant	nonsense suppression
CUCUCGGUAGCCAAGUUGGUUUAAGGCGCAAGACUUUAAUUUAUCACUACGAAAUCUUGAGAUCGGGCGAUCGACUCGCCCCUGGGAGAUUUUUUCCUCGAGCAA [U70A C83U]	0.0439
CUCUCGGUAGCCAAGUUGGUUUAAGGCGCAAGACUUUAAUUUAUCACUACGAAAUCUUGAGAUCGGGCGUCCGACUCGCCACCGGGAGAUUUUUUCCUCGAGCAA [U71C C81A]	≤ 0.026
CUCUCGGUAGCCAAGUUGGUUUAAGGCGCAAGACUUUAAUUUAUCACUACGAAAUCUUGAGAUCGGGCGUACGACUCGCCCACGGGAGAUUUUUUCCUCGAGCAA [U71A C82A]	≤ 0.026
CUCUCGGUAGCCAAGUUGGUUUAAGGCGCAAGACUUUAAUUUAUCACUACGAAAUCUUGAGAUCGGGCGCUCGACACGCCCCCGGAAGAUUUUUUCCUCGAGCAA [U70C U76A G86A]	≤ 0.026
CUCUCGGUAGCCAAGUUGGUUUAAGGCGCAAGACUUUAAUUUAUCACUACGAAAUCUUGAGAUCGGGCGUCCGACUCGCCCCCGGGAGAUUUUUUCCUCGAGCAA [U71C]	≤ 0.026
CUCUCGGUAGCCAAGUUGGUUUAAGGCGCAAGACUUUAAUUUAUCACUACGAAAUCUUGAGAUCGGGCGUACGACUCGCCCCCGGGAGAUUUUUUCCUCGAGCAA [U71A]	≤ 0.026
CUCUCGGUAGCCAAGUUGGUUUAAGGCGCAAGACUUUAAUUUAUCACUACGAAAUCUUGAGAUCGGGCGCUCGACUCACCCCCGGGAGAUUUUUUCCUCGAGCAA [U70C G78A]	0.0308
CUCUCGGUAGCCAAGUUGGUUUAAGGCGCAAGACUUUAAUUUAUCACUACGAAAUCUUGAGAUCGGGCGCUCGACUCGCCCCCGGGAGUUUUUUUCCUCGAGCAA [U70C A89U]	≤ 0.026
CUCUCGGUAGCCAAGUUGGUUUAAGGCGCAAGACUUUAAUUUAUCACUACGAAAUCUUGAGAUCGGGCGGUCGACUCGCCCCCGGUAGAUUUUUUCCUCGAGCAA [U70G G86U]	≤ 0.026
CUCUCGGUAGCCAAGUUGGUUUAAGGCGCAAGACUUUAAUUUAUCACUACGAAAUCUUGAGAUCGGGCGUACGACUCGCCGCCGGGAGAUUUUUUCCUCGAGCAA [U71A C81G]	≤ 0.026
CUCUCGGUAGCCAAGUUGGUUUAAGGCGCAAGACUUUAAUUUAUCACUACGAAAUCUUGAGAUCGGGCGUACCACUCGCCCCCGGCAGAUUUUUUCCUCGAGCAA [U71A G73C G86C]	≤ 0.026
CUCUCGGUAGCCAAGUUGGUUUAAGGCGCAAGACUUUAAUUUAUCACUACGAAAUCUUGAGAUCGGGCUUUCGACUCGCCCCCGUGAGAUUUUUUCCUCGAGCAA [G69U G85U]	≤ 0.026
CUCUCGGUAGCCAAGUUGGUUUAAGGCGCAAGACUUUAAUUUAUCACUACGAAAUCUUGAGAUCGGGCGUCCGACUCCCCCCCGGGAGAUUUUUUCCUCGAGCAA [U71C G78C]	≤ 0.026
CUCUCGGUAGCCAAGUUGGUUUAAGGCGCAAGACUUUAAUUUAUCACUACGAAAUCUUGAGAUCGGGCGGUCGACUCGCCCCCGGGACCUUUUUUCCUCGAGCAA [U70G G88C A89C]	≤ 0.026
CUCUCGGUAGCCAAGUUGGUUUAAGGCGCAAGACUUUAAUUUAUCACUACGAAAUCUUGAGAUCGGGCCUUCGACUCGCCCCCGGCAGAUUUUUUCCUCGAGCAA [G69C G86C]	≤ 0.026
CUCUCGGUAGCCAAGUUGGUUUAAGGCGCAAGACUUUAAUUUAUCACUACGAAAUCUUGAGAUCGGGCCUUCGACUCGCCCCCGGAAGAUUUUUUCCUCGAGCAA [G69C G86A]	≤ 0.026
CUCUCGGUAGCCAAGUUGGUUUAAGGCGCAAGACUUUAAUUUAUCACUACGAAAUCUUGAGAUCGGGCGCUCGACUCGCCCGCGGGAGAUUUUUUCCUCGAGCAA [U70C C82G]	≤ 0.026
CUCUCGGUAGCCAAGUUGGUUUAAGGCGCAAGACUUUAAUUUAUCACUACGAAAUCUUGAGAUCGGGCGUCCGACUCGGCCCCGGGAUAUUUUUUCCUCGAGCAA [U71C C79G G88U]	≤ 0.026
CUCUCGGUAGCCAAGUUGGUUUAAGGCGCAAGACUUUAAUUUAUCACUACGAAAUCUUGAGAUCGGGCUUUCGACGCGCCCCCGGGAUAUUUUUUCCUCGAGCAA [G69U U76G G88U]	≤ 0.026
CUCUCGGUAGCCAAGUUGGUUUAAGGCGCAAGACUUUAAUUUAUCACUACGAAAUCUUGAGAUCGGGCGUACGACUCGCCCCCGGGAUAUUUUUUCCUCGAGCAA [U71A G88U]	≤ 0.026
CUCUCGGUAGCCAAGUUGGUUUAAGGCGCAAGACUUUAAUUUAUCACUACGAAAUCUUGAGAUCGGGCGCCCGACUCGCCCCCGGGAGAUUUUUUCCUCGAGCAA [U70C U71C]	≤ 0.026
CUCUCGGUAGCCAAGUUGGUUUAAGGCGCAAGACUUUAAUUUAUCACUACGAAAUCUUGAGAUCGGGCGCACGACUCGCCCCCGGGAGAUUUUUUCCUCGAGCAA [U70C U71A]	≤ 0.026
CUCUCGGUAGCCAAGUUGGUUUAAGGCGCAAGACUUUAAUUUAUCACUACGAAAUCUUGAGAUCGGGCUUCCGACUCGCCCCCGGGAGAUUUUUUCCUCGAGCAA [G69U U71C]	≤ 0.026
CUCUCGGUAGCCAAGUUGGUUUAAGGCGCAAGACUUUAAUUUAUCACUACGAAAUCUUGAGAUCGGGCGUACGUCUCGCCCCCGGGAGAUUUUUUCCUCGAGCAA [U71A A74U]	≤ 0.026
CUCUCGGUAGCCAAGUUGGUUUAAGGCGCAAGACUUUAAUUUAUCACUACGAAAUCUUGAGAUCGGGCCUUCGACUCGCCACCGGGAGAUUUUUUCCUCGAGCAA [G69C C81A]	≤ 0.026
CUCUCGGUAGCCAAGUUGGUUUAAGGCGCAAGACUUUAAUUUAUCACUACGAAAUCUUGAGAUCGGGCGGUUGACUCGCUCCCGGGAGAUUUUUUCCUCGAGCAA [U70G C72U C80U]	≤ 0.026
CUCUCGGUAGCCAAGUUGGUUUAAGGCGCAAGACUUUAAUUUAUCACUACGAAAUCUUGAGAUCGGGCGUCCGACUCGCCCUCGGGAGAUUUUUUCCUCGAGCAA [U71C C82U]	≤ 0.026
